Out of some 94,000 compounds screened, about 6,200 (6.6%) were called active. Inconclusive means that the source gave no clear call. Such entries were picked first, then a sample of the others. The call rests on the fitted dose curve; in most records, active means well fitted inhibition curve with a large enough effect; inconclusive means small, poorly fitted or top-dose-only effect; inactive means flat fitted curve, though single readings scatter. Potencies beside an inconclusive call are fits to weak or partial responses and may not hold up.
Test: Cytotoxic Profiling in HEK 293 Cell Line of Diverse Libraries Using Quantitative High-Throughput Screening; further: nearly all actives have a fitted effect of over 60% in size
Details: HEK 293 viability, ATP luminescence (CellTiter-Glo), 48-72 h; activity change, negative = cytotoxicity: at 115 µM (top of the series) unless noted; series mostly up to 115 µM
In short: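 Luminescence from cellular ATP, measured with CellTiter-Glo, indicates HEK 293 viability. Cells plated at 250 cells/well are treated with compound for 48 or 72 hr at 37 degree Celsius before reagent addition.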
On the % scale 0 is the no-effect control and ±100 the full control effect; potency means the concentration at half of the fitted maximal effect; tags describe the fitted curve by direction and shape.

SMILES	Potency	activity change, negative = cytotoxicity
COc1ccc(-c2cc(N3CCCN(C(=O)C4CCCC4)CC3)n[nH]2)cc1	inconclusive: 89.1 µM [inhibitor, single point]	
Cc1ccc(S(=O)(=O)N2CCCC(CCC(=O)NC3CCCCC3)C2)cc1 (stereo unspecified)	inconclusive: 22.4 µM [inhibitor, full curve, poor fit]	
c1ccc(C2=NOC3(CCCN(CC4CCCC4)C3)C2)cc1 (stereo unspecified)	inconclusive: 126 µM [inhibitor, single point]	
CCOC(=O)C1(Cc2ccccc2C)CCCN(Cc2cn(CC(N)=O)c3ccccc23)C1 (stereo unspecified)	inconclusive: 79.4 µM [inhibitor, partial curve, poor fit]	
O=C1c2cnc(-c3ccc(O)c(F)c3)nc2OCCN1c1ccccc1	active: 44.7 µM	
O=C(NCC1CN(CC2CC2)CC12CN(c1ccccc1)C2)c1ccccc1 (stereo unspecified)	inconclusive: 79.4 µM [inhibitor, partial curve, poor fit]	
COc1cccc(-c2ccc(C(=O)N3CCC(C(=O)N4CCC(Cc5ccccc5)CC4)CC3)cc2)c1	inconclusive: 56.2 µM [inhibitor, partial curve, poor fit]	
Cc1ccc(CN2CCN(C(=O)CCC[C@H]3NC[C@@H]4C[C@H]3CN(Cc3ccccc3)C4)CC2)cc1	inconclusive: 56.2 µM [inhibitor, partial curve, poor fit]	
OCC1CN(Cc2ccccc2)CC12CCN(Cc1ccncc1)CC2 (stereo unspecified)	inconclusive: 56.2 µM [inhibitor, partial curve, poor fit]	
O=C(c1cccc2ncccc12)N1CCC2(CC1)Nc1ccccc1NC2=O	inconclusive: 89.1 µM [inhibitor, partial curve, poor fit]	
O=C1CC2(CCN(c3nc(-c4ccccc4)no3)CC2)CN1Cc1ccccc1	inconclusive: 50.1 µM [inhibitor, partial curve, poor fit]	
CCOC(=O)c1cccc(NC(=O)N2CC[C@@H](CC(=O)NCc3ccc(OC)c(OC)c3)[C@@H](CC)C2)c1		inactive: -26.3%
O=c1cc(-c2cnccn2)oc2c(Nc3cccc(OC(F)(F)F)c3)nccc12	inconclusive: 31.6 µM [inhibitor, partial curve, poor fit]	
CC(=O)N[C@@H]1CN(Cc2cc(=O)n3[nH]cnc3n2)C[C@H]1c1ccc(C)o1		inactive: -1.39%
CNCc1cn(C2CCN(Cc3c(OC)ccc(F)c3F)CC2)nn1	inconclusive: 39.8 µM [inhibitor, single point]	
O=C(c1cc2cc(F)ccc2[nH]1)N1CCC(CO)(CCCc2ccccc2)CC1	inconclusive: 44.7 µM [inhibitor, partial curve, poor fit]	

From PubChem BioAssay AID1345083 (National Center for Advancing Translational Sciences (NCATS), 2018)
